# According to patent publication US20180289637A1, “SUBSTITUTED CYCLOHEXANONES” (CLEXIO BIOSCIENCES LTD., priority 2016, published 2018):
# Columns and labels:
# C57Bl/6 strain mice [1] = experiment: Tail Suspension Test (mice), Example 13; settings: 6 min TST; for reduction of immobility time from the saline control group: 30 min before test; for decrease of immobility time compared to vehicle WFI: 120 mg/kg p.o., 45 min before test
# C57Bl/6 strain mice [2] = experiment: Tail Suspension Test (mice), Example 10; settings: 15 mg/kg ip, 30 min before test, 6 min TST
Structure (SMILES),reduction of immobility time from the saline control group (C57Bl/6 strain mice [1]; 30 mg/kg ip),reduction of immobility time from the saline control group (C57Bl/6 strain mice [1]; 15 mg/kg ip),decrease of immobility time compared to vehicle WFI (C57Bl/6 strain mice [1]),reduction of immobility time compared to the saline control group (C57Bl/6 strain mice [2])
"CNC1(c2ccccc2Cl)CCCCC1=O (racemic) [Ketamine, ketamine]",−41.5%,–,–,–
"CN[C@]1(c2ccccc2Cl)CCCCC1=O [Esketamine, S-ketamine, reference compound]",−34.7%,−26.2%,−91.0%,−41.3%
"[2H]C1([2H])CCC[C@](NC)(c2ccccc2Cl)C1=O [Example 1, (2S)-2-(2-chlorophenyl)-6,6-dideuterio-2-[deuterio(methyl)amino]cyclohexanone, deuterium chloride]",−53.0%,−29.0%,−87.6%,–
